The whole screen tested about 310,000 compounds, of which about 14,000 (4.5%) showed an effect of 50% or more. The effect is printed as a negative number. The list shows a part of the results.
The molecules below were run against human ether-à-go-go-related gene (hERG) potassium channel (human, UniProt Q12809) (assay: primary screen, population patch clamp on CHO cells stably expressing hERG).
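Note: peak tail current of the secondary pulse compared with the same well before compound.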

Chain of human ether-à-go-go-related gene (hERG) potassium channel (Q12809 whole entry, looked up): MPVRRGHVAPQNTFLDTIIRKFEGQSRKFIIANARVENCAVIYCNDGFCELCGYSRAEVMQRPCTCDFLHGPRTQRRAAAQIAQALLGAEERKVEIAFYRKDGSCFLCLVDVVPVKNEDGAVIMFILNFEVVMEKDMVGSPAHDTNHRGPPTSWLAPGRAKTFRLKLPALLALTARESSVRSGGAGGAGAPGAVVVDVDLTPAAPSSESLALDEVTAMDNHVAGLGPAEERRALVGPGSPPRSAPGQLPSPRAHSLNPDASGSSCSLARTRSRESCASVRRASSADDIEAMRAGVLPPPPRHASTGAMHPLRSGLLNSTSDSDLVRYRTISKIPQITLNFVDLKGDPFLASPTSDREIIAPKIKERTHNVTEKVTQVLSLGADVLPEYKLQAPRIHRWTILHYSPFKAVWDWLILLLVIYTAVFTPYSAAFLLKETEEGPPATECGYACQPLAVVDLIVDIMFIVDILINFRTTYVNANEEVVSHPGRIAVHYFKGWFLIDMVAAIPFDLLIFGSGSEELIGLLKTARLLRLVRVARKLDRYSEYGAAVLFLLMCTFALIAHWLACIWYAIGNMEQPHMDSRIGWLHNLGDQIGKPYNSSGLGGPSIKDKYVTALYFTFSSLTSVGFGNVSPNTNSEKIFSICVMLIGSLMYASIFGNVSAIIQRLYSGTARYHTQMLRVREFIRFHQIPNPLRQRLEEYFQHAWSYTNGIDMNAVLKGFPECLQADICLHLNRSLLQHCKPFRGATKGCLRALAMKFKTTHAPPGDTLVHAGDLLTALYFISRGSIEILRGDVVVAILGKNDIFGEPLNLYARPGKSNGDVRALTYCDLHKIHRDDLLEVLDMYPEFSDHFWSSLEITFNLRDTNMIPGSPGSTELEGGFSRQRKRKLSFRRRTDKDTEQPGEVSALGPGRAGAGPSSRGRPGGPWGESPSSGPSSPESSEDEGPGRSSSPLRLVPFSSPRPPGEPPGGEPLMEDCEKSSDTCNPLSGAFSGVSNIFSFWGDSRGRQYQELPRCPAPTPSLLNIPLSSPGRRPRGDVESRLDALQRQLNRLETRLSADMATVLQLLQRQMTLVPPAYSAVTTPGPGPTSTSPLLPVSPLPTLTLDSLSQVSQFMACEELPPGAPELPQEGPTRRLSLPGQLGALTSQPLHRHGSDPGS

Compound	hERG current change (%, negative = inhibition) at 10uM
COC(=O)CCCC(=O)N(C)CC1CCCN(CCc2ccccc2C)C1 (stereo not shown)	-53.6%
CCOC(=O)C1=C(CC)Nc2ccccc2N/C1=N\S(=O)(=O)c1ccccc1F	-3.06%
C=CCNC(=O)c1c(N)n(CCN2CCOCC2)c2nc3ccccc3nc12	-20%
CC(C)(C)c1ccc(C(=O)N2CCN(c3ccc(N4CCOCC4)nn3)CC2)cc1	-49.3%
CC1CCN(C(=O)C2CCN(S(=O)(=O)N3CCC4(CC3)OCCO4)CC2)CC1	27.4%
CCOc1ccc(-c2ccc(SCC(=O)Nc3nnc(CC)s3)nn2)cc1	46.4%
Cc1ccc(S(=O)(=O)Oc2ccc(/C=C3\N=C(c4cccc(C)c4)OC3=O)cc2)cc1	1.5%
O=C(NCc1ccccc1)c1ccc2ccccc2n1	0.0129%
Cc1ccc(NC(=O)CSc2nnc(Cc3csc(C)n3)o2)cc1	-9.27%
Cc1cc(C)cc(-n2c(C)cc(/C=N/NC(=O)CSc3ncccn3)c2C)c1	1.67%
O=C(CSc1ccncc1)Nc1ccc(S(=O)(=O)Nc2nccs2)cc1	10.2%
COc1ccc(F)cc1S(=O)(=O)N1CCC(C(N)=O)CC1	3.21%
COCCCNC(=S)N1CCN(S(=O)(=O)c2ccc(OC)cc2)CC1	2.49%
S=c1[nH]nc(-c2cc(-c3ccccc3)n[nH]2)n1/N=C/c1ccc(Cl)cc1	17.7%
COc1ccccc1N1CCN(C(=O)c2cc3cc(Br)ccc3oc2=O)CC1	-16.9%
O=C(/C=C/c1ccccc1)NCC(=O)N/N=C/c1cccs1	-3.21%
O=C(O)CCCC(=O)Nc1cccc(-c2nc3ccccc3[nH]2)c1	34.1%
O=C(CC(c1ccccc1)c1ccccc1)NCC1CCCO1 (stereo not shown)	8.09%
Cc1nc(Nc2nc3ccccc3o2)nc(C)c1C(=O)Nc1ccc(F)cc1	-14.6%
Cc1ccc(CCNC(=O)C2CC(c3ccccc3C(F)(F)F)=NO2)cc1 (stereo not shown)	-14.6%
O=C(c1cc(-c2ccccc2)nn1-c1ccccc1)N1CCN(S(=O)(=O)c2cccc(F)c2)CC1	17.7%
CC1NC2(C(=O)N(Cc3ccccc3)c3ccccc32)C2C(=O)N(c3ccccc3)C(=O)C12 (stereo not shown)	12.6%

Compound	hERG current change (%, negative = inhibition) at 10uM
COc1ccc(CNCC(O)COCc2cccs2)cc1 (stereo not shown)	-60.8%
COc1ccc(Oc2c(C)oc3cc(OC(=O)N(C)C)ccc3c2=O)cc1	8.54%
CN(C)C(=O)c1cc(S(=O)(=O)N(C)C)c(Cl)cc1N1CCCC1	-3.8%
O=C(NCc1ccccn1)C1Nc2ccc(C(F)(F)F)cc2C2C=CCC12 (stereo not shown)	0.195%
CCCCCOC(=O)C1=C(C)NC(=O)NC1c1ccc(N(C)C)cc1 (stereo not shown)	12.5%
Cc1ccccc1NC1=NC2(CCCC2)N=C(N)N1	-5.43%
Cc1c(C)c2cc3c4c(oc3c(C)c2oc1=O)CCCC4	1.96%
COc1cc(NS(=O)(=O)c2ccc(NC(C)=O)cc2)cc(OC)c1	9.3%
Cc1cccc(C(=O)N2CCCN(C(=O)c3cccc(C)c3)CC2)c1	-0.26%
O=C(OCC(=O)N1CCCc2ccccc21)c1ccc(Cl)nc1	-3.94%
C/C(=N\NC(=O)CCc1c(C)n[nH]c1C)c1ccc([N+](=O)[O-])cc1	-10.8%
COc1ccc(S(=O)(=O)NCC(c2ccc3c(c2)OCO3)N2CCOCC2)cc1 (stereo not shown)	-6.41%
O=C(Nc1ccc(Cl)cc1)OCc1ccccn1	10.3%
Cn1nnnc1Sc1ncnc2scc(-c3ccccc3C(F)(F)F)c12	-13.2%
COC(=O)C/C(C)=N/Nc1ccc(S(=O)(=O)N2CCCC2)cc1[N+](=O)[O-]	6.76%
O=C(Nc1ccccc1)c1cccc(S(=O)(=O)N2CCCCC2)c1	0.607%
CCOC(=O)N1CC=C2C(C#N)=C(N)C(C#N)(C#N)[C@H](c3ccccc3OCC)[C@H]2C1	-7.13%
O=C(CCCl)N1CCCC2(CCCCC2)C1	-0.6%
O=C1[C@@H]2Cc3c([nH]c4ccccc34)CN2C(=O)CN1CCCCCO	10.3%
CCOC(=O)N1CCc2c(sc(NC(=O)CCS(=O)(=O)c3ccccc3)c2C(N)=O)C1	-10.8%
CC1CCC(NC(=O)CC(C)(C)Cc2nc3ccccc3c(=O)[nH]2)CC1 (stereo not shown)	-7.76%

Reference: article PMC4336329 (PLoS ONE, 2015)
